In all, about 280,000 compounds went through this assay and about 100 (0.036%) were called active. This list was built around the results that the source calls inconclusive (neither active nor inactive); the mix of calls is not that of the screen. The call rests on the fitted dose curve; in most records, active means well fitted inhibition curve with a large enough effect in the signal ratio, with a control signal flat (not every such curve was filed as active); inconclusive means small, poorly fitted or top-dose-only effect, or effect the other way, or a change in a side signal; inactive means no such curve, though single readings can be large or run the other way; the % refers to the signal ratio. Where the call is inconclusive, the potency comes from a doubtful curve fit. A note “side channel” means that the fit belongs to a control or component signal, not to the main read-out.
What follows are compounds tested against Muscleblind-like protein 1 (Homo sapiens) (UniProt Q9NR56) (assay: qHTS Assay for Inhibitors of MBNL1-poly(CUG) RNA binding). Conditions: TR-FRET MBNL1-His/biotin-(CUG)12 binding, 665/545 ratio; activity change, negative = inhibition: at 57.5 µM (top of the series).
Chain of UniProt Q9NR56 (Q9NR56 whole entry, looked up): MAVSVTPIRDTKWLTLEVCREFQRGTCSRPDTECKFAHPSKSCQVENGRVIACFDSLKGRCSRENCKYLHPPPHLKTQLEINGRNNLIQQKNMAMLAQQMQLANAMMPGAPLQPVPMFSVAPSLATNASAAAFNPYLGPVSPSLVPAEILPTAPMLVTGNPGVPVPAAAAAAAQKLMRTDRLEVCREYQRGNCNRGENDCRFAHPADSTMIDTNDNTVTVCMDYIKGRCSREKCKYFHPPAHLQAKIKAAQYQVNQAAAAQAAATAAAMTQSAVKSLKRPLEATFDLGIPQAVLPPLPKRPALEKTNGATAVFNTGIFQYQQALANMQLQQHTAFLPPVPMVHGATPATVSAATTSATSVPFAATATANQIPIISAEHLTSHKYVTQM
How it was run: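 TR-FRET readout: Ex 340 nm, 665/545 nm emission ratio, normalized to buffer-only (basal) and MBNL1-(CUG)12 controls. Complex of MBNL1-His with Biotin-(CUG)12, compounds 92 nM–58 uM, incubated 60 min at room temperature.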
On the % scale 0 is the no-effect control and ±100 the full control effect; potency means the concentration at half of the fitted maximal effect; tags describe the fitted curve by direction and shape or compound fluorescence and quenching.

Compound	Potency	activity change, negative = inhibition
COc1ccc(/C=N/Nc2nncc3ccccc23)cc1	inactive	–
O=C(Cn1nc(CNc2ccc(Br)cc2)[n+]2c1CCCCC2)c1ccc([N+](=O)[O-])cc1	inconclusive: 14.1 µM [quencher, side channel, partial curve]	–
CCN(CC)c1ccc(C=NCCNS(=O)(=O)c2ccc(C)cc2)cc1	inconclusive: 20 µM [quencher, side channel, partial curve]	–
Cc1nn(C)c(C)c1CN(C)S(=O)(=O)c1ccc2ccccc2c1	inactive	–
Cc1ccc2oc(C(=O)Nc3nnc(C)s3)c(C)c2c1	inactive	–
Cc1cc(C(F)(F)F)nc(SCC(=O)c2cccc([N+](=O)[O-])c2)n1	inconclusive: 12.6 µM [quencher, side channel, partial curve]	–
CC(Cc1ccc(Cl)cc1)N1CCC(n2nccc2NC(=O)C2CCCC2)CC1 (stereo not given)	inactive	–
CCOC(=O)c1cc(OC(=O)c2cccc([N+](=O)[O-])c2)n(-c2ccccc2)n1	inconclusive: 31.6 µM [quencher, side channel, single point]	–
C=CCn1c(SCCOc2ccc(OC)cc2)nnc1C(C)NC(=O)Cc1ccc(OC)cc1 (stereo not given)	inactive	–
O=C(CSc1ccccn1)N/N=C/c1ccccc1[N+](=O)[O-]	inconclusive: 14.1 µM [quencher, side channel, partial curve]	–
Cn1c(=O)[nH]c(Nc2ccc(F)cc2)c([N+](=O)[O-])c1=O	inconclusive: 39.8 µM [quencher, side channel, single point]	–
CNC[C@@H](C)NC[C@@H](Cc1ccccc1)NCCc1ccccc1	inactive	–
CCOC(=O)c1ccc(Nc2ncccc2[N+](=O)[O-])cc1	inconclusive: 3.16 µM [quencher, partial curve]	–
CN(C)S(=O)(=O)c1ccc(/C(O)=C2/C(=O)C(=O)N(Cc3cccnc3)C2c2ccncc2)cc1 (stereo not given)	inconclusive: 12.6 µM [quencher, side channel, partial curve]	–
CN1CCN(c2ccc(NC(=O)c3cc4ccccc4o3)cc2)CC1	inactive	–
CCCc1nc2c(c(=O)c3ccccc3n2C)c(=O)n1C1CCCCCC1	inconclusive: 0.251 µM [fluorescent, side channel, partial curve]	–
O=C(CCCNC(=O)/C(=C/c1ccc(Br)cc1)NC(=O)c1ccccc1)OCc1ccccc1	inactive	–
O=c1[nH]c(-c2ccccn2)cc2ccccc12	–	inactive: 21.9% [at 11.5 µM]
CC1CCc2c(sc(/N=C/c3ccco3)c2C(N)=O)C1 (stereo not given)	inactive	–
CCOC(=O)c1nc(NCc2ccccc2)sc1C	inconclusive: 39.8 µM [fluorescent, side channel, single point]	–
CCOC(=O)c1cc(-c2ccc(OC)cc2F)nc2c1c(C)nn2CCC#N	inactive	–
CC1=NOC(=O)/C1=C\c1ccc(-c2cccc(Cl)c2)o1	inactive	–
CCOC(=O)c1[nH]c2ccccc2c1NC(=O)c1ccc(S(=O)(=O)N(C)C)cc1	inconclusive: 39.8 µM [quencher, side channel, single point]	–

Compound	Potency	activity change, negative = inhibition
CCOC(=O)c1c(C)nc2ccccn12	inactive	–
CCOc1ccccc1NC1=CC(=O)CC(c2ccccc2)C1 (stereo not given)	inactive	–
CSc1ccc(N2CCN(CCCNC(=O)Nc3ccccc3F)CC2)cc1	inactive	–
COCCCNC(=O)C1CCCN(S(=O)(=O)c2cccc3nsnc23)C1 (stereo not given)	inconclusive: 12.6 µM [quencher, side channel, partial curve]	–
COc1ccc(-c2nnc(CSc3nc4ccccc4c(=O)n3C)o2)cc1OC	inconclusive: 39.8 µM [quencher, side channel, single point]	–
CCC(=O)N1CCc2cc(S(=O)(=O)NCCN3CCCCC3CC)ccc21 (stereo not given)	inactive	–
C/C=C/C=C\C(=O)Nc1cccc(C2=NOC3(C2)C[C@H](C(N)=O)N(C(=O)/C=C/C)C3)c1 (stereo not given in full)	inactive	–
CCCCCCc1nnc(NC(=O)c2ccco2)s1	inactive	–
CCOC(=O)c1c(N)n(-c2ccc(N)cc2)c2nc3ccccc3nc12	–	inactive: -3.01% [at 11.5 µM]
CC(=O)NC1CC2CCCC(C1)N2CC(=O)N1CCCc2ccccc21 (stereo not given)	inconclusive: 3.55 µM [fluorescent, side channel, full curve, poor fit]	–
O=[N+]([O-])c1nn(-c2ccc3c(c2)OCCO3)n(O)c1=NCc1ccc(F)cc1Cl	inconclusive: 3.98 µM [quencher, side channel, partial curve]	–
O=[N+]([O-])c1ccc(CSc2nc3ccccc3[nH]2)cc1	inconclusive: 28.2 µM [quencher, side channel, partial curve]	–
CCNC(=S)NNC(=O)c1cccn(Cc2ccc(Cl)cc2Cl)c1=O	inactive	–
COc1ccc2c(c1)C(c1cccs1)=NNC(c1cccnc1)=N2	inconclusive: 17.8 µM [quencher, side channel, single point]	–
CNC(=O)COC(=O)c1cc(-c2ccc(OC)cc2)nc2ccccc12	inconclusive: 25.1 µM [quencher, side channel, partial curve]	–
O=C(/C=C/c1cccs1)Nc1nc(-c2ccccc2)cs1	inactive	–
O=[N+]([O-])c1ccc(Sc2cccc[n+]2[O-])c2nonc12	inconclusive: 20 µM [quencher, side channel, partial curve]	–
COc1ccc(/C=C2/SC(=S)N(CCCC(=O)Nc3cccc(O)c3)C2=O)cc1	inconclusive: 22.4 µM [quencher, single point]	–
CC(=O)Nc1ccc(S(=O)(=O)Nc2ccc3c(c2)C(=O)OC3)cc1	inactive	–
C=CCSc1nnc2c(n1)OC(c1cccnc1)N(C(C)=O)c1ccccc1-2 (stereo not given)	inconclusive: 15.8 µM [quencher, side channel, partial curve]	–
CCOC(=O)N1CCC(Nc2c(-c3ccccc3)c(=O)c2=O)CC1	inconclusive: 20 µM [quencher, side channel, partial curve]	–
CCN(CC)CCNC(=O)c1c(O)c2cc(OC)c(OC)cc2[nH]c1=O	inconclusive: 79.4 µM [inhibitor, single point]	–

Reference: PubChem BioAssay AID2675 (National Center for Advancing Translational Sciences (NCATS), 2010)
